Data as given in the supplement of paper PMC4967469.
Lines with a small IC50 respond at low doses; a fit beyond the top or the lowest dose is shown as a bound at that dose. For AUC the same curve is integrated over the 256-fold range of doses and scaled to a fraction; values near 1 show little effect. For some of these results: A top dose marked as inferred is not printed in the source and was worked back from the curve model. For some of these results: Drugs with an entry number were screened twice under separate entries, and the two screens often disagree.

How the values were obtained:
Assay in all cases: Viability of human cancer cell lines after 72 h of drug (GDSC screen)
Gemcitabine = compound: Nc1ccn([C@@H]2O[C@H](CO)[C@@H](O)C2(F)F)c(=O)n1 [Gemcitabine]; conditions: top dose 1.024 µM
Method: (§1)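 Human cancer cell lines in 384-well plates, medium with 10% serum, drug for 72 h over a 256-fold dose range (nine 2-fold or five 4-fold steps up to the top dose). Adherent lines were fixed and stained with the nucleic acid dye Syto60, suspension lines read with resazurin; signal relative to control wells, capped at 0 and 100%. One two-parameter sigmoid per drug and line, fitted in a mixed model over all curves with the slope shared within a line.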

GNF-2 = compound: NC(=O)c1cccc(-c2cc(Nc3ccc(OC(F)(F)F)cc3)ncn2)c1 [GNF-2]; conditions: top dose 1.28 µM; top dose inferred
Method: as §1

Bicalutamide = compound: CC(O)(CS(=O)(=O)c1ccc(F)cc1)C(=O)Nc1ccc(C#N)c(C(F)(F)F)c1 [Bicalutamide]; conditions: top dose inferred
Method: as §1

MP470 = compound: S=C(NCc1ccc2c(c1)OCO2)N1CCN(c2ncnc3c2oc2ccccc23)CC1 [MP470]; conditions: top dose 20 µM; top dose inferred
Method: as §1

KIN001-270 = compound: Cc1ccc(Nc2cc(-c3cccc(N4C(=O)c5ccccc5C4=O)c3)ncn2)cc1NS(C)(=O)=O [KIN001-270]; conditions: top dose 20 µM; top dose inferred
Method: as §1

AUY922 = compound: CCNC(=O)c1noc(-c2cc(C(C)C)c(O)cc2O)c1-c1ccc(CN2CCOCC2)cc1 [AUY922]; conditions: top dose 0.256 µM; top dose inferred
Method: as §1

TW-37 = compound: CC(C)c1ccccc1Cc1cc(C(=O)Nc2ccc(S(=O)(=O)c3ccccc3C(C)(C)C)cc2)c(O)c(O)c1O [TW-37]; conditions: top dose 5 µM
Method: as §1

T0901317 = compound: O=S(=O)(c1ccccc1)N(CC(F)(F)F)c1ccc(C(O)(C(F)(F)F)C(F)(F)F)cc1 [T0901317]; conditions: top dose 10.24 µM; top dose inferred
Method: as §1

Nilotinib = compound: Cc1cn(-c2cc(NC(=O)c3ccc(C)c(Nc4nccc(-c5cccnc5)n4)c3)cc(C(F)(F)F)c2)cn1 [Nilotinib]; conditions: top dose 2 µM
Method: as §1

LFM-A13 = compound: C/C(O)=C(\C#N)C(=O)Nc1cc(Br)ccc1Br [LFM-A13]; conditions: top dose 16 µM; top dose inferred
Method: as §1

[1] = top dose 1.024 µM, screen: GDSC drug entry 150
[2] = top dose 10 µM, screen: GDSC drug entry 1502

Row | Cell Line | AUC (Gemcitabine) | IC50 (Gemcitabine) [µM] | AUC (GNF-2) | IC50 (GNF-2) [µM] | AUC (Bicalutamide; [1]) | IC50 (Bicalutamide; [1]) [µM] | AUC (Bicalutamide; [2]) | IC50 (Bicalutamide; [2]) [µM] | AUC (MP470) | IC50 (MP470) [µM] | AUC (KIN001-270) | IC50 (KIN001-270) [µM] | AUC (AUY922) | IC50 (AUY922) [µM] | AUC (TW-37) | IC50 (TW-37) [µM] | AUC (T0901317) | IC50 (T0901317) [µM] | AUC (Nilotinib) | IC50 (Nilotinib) [µM] | AUC (LFM-A13) | IC50 (LFM-A13) [µM]
1 | SK-ES-1 (Ewing sarcoma, semi-adherent) | 0.111 | < 0.004 | 0.985 | > 1.28 | 0.98 | > 1.02 | 0.977 | > 10 | 0.652 | 3.4 | 0.971 | > 20 | 0.504 | 0.0164 | 0.524 | 0.365 | 0.946 | > 10.2 | 0.97 | > 2 | 0.922 | > 16
2 | HSC-39 (stomach, suspension) | 0.984 | > 1.02 | 0.991 | > 1.28 | 0.991 | > 1.02 | 0.99 | > 10 | 0.933 | > 20 | 0.991 | > 20 | 0.944 | > 0.256 | 0.529 | 0.371 | 0.967 | > 10.2 | 0.961 | > 2 | 0.991 | > 16
3 | NB10 (neuroblastoma, adherent) | 0.476 | 0.055 | 0.984 | > 1.28 | 0.987 | > 1.02 | 0.971 | > 10 | 0.837 | 13 | 0.975 | > 20 | 0.759 | 0.0873 | 0.473 | 0.265 | 0.98 | > 10.2 | 0.987 | > 2 | 0.986 | > 16
4 | no-11 (glioma, adherent) | 0.728 | 0.342 | 0.983 | > 1.28 | 0.977 | > 1.02 | 0.981 | > 10 | 0.954 | > 20 | 0.967 | > 20 | 0.637 | 0.0423 | 0.732 | 1.73 | 0.976 | > 10.2 | 0.962 | > 2 | 0.975 | > 16
5 | ALL-PO (lymphoblastic leukaemia, suspension) | 0.143 | 0.00452 | 0.956 | > 1.28 | 0.982 | > 1.02 | 0.971 | > 10 | 0.76 | 7.41 | 0.855 | 17.3 | 0.444 | 0.0111 | 0.385 | 0.148 | 0.866 | 10.1 | 0.862 | 1.87 | 0.912 | > 16
6 | SCH (stomach, adherent) | 0.988 | > 1.02 | 0.976 | > 1.28 | 0.988 | > 1.02 | 0.98 | > 10 | 0.912 | > 20 | 0.982 | > 20 | 0.988 | > 0.256 | 0.534 | 0.39 | 0.984 | > 10.2 | 0.988 | > 2 | 0.982 | > 16
7 | CGTH-W-1 (thyroid, adherent) | 0.182 | 0.00718 | 0.976 | > 1.28 | 0.986 | > 1.02 |  |  | 0.851 | 15.2 | 0.978 | > 20 | 0.585 | 0.0272 | 0.505 | 0.323 | 0.986 | > 10.2 | 0.611 | 0.252 | 0.969 | > 16
8 | SIMA (neuroblastoma, adherent) | 0.539 | 0.0831 | 0.98 | > 1.28 | 0.984 | > 1.02 | 0.98 | > 10 | 0.762 | 8.02 | 0.955 | > 20 | 0.821 | 0.174 | 0.385 | 0.144 | 0.971 | > 10.2 | 0.985 | > 2 | 0.971 | > 16
9 | MDST8 (large intestine, adherent) | 0.468 | 0.0524 | 0.988 | > 1.28 | 0.987 | > 1.02 | 0.986 | > 10 | 0.965 | > 20 | 0.98 | > 20 | 0.694 | 0.0556 | 0.474 | 0.266 | 0.987 | > 10.2 | 0.925 | > 2 | 0.986 | > 16
10 | REH (B-cell leukaemia, suspension) | 0.25 | 0.0127 | 0.942 | > 1.28 | 0.983 | > 1.02 | 0.963 | > 10 | 0.905 | > 20 | 0.955 | > 20 | 0.456 | 0.0122 | 0.662 | 0.861 | 0.955 | > 10.2 | 0.969 | > 2 | 0.97 | > 16
11 | COLO-684 (endometrium, suspension) | 0.418 | 0.037 | 0.974 | > 1.28 | 0.981 | > 1.02 | 0.983 | > 10 | 0.914 | > 20 | 0.948 | > 20 | 0.659 | 0.0468 | 0.429 | 0.195 | 0.942 | > 10.2 | 0.982 | > 2 | 0.973 | > 16
12 | L-363 (myeloma, suspension) | 0.618 | 0.128 | 0.987 | > 1.28 | 0.99 | > 1.02 | 0.977 | > 10 | 0.441 | 0.884 | 0.974 | > 20 | 0.594 | 0.0279 | 0.556 | 0.434 | 0.968 | > 10.2 | 0.964 | > 2 | 0.987 | > 16
